Source: PMC4336329 (PLoS ONE, 2015)
In all, about 310,000 compounds went through this assay and about 2,200 (0.71%) showed an effect of 50% or more. The effect is printed as a negative number. This is one part of the list.

target: human ether-à-go-go-related gene (hERG) potassium channel (human, UniProt Q12809); test: primary screen, population patch clamp on CHO cells stably expressing hERG
Sequence (Q12809 whole entry, looked up): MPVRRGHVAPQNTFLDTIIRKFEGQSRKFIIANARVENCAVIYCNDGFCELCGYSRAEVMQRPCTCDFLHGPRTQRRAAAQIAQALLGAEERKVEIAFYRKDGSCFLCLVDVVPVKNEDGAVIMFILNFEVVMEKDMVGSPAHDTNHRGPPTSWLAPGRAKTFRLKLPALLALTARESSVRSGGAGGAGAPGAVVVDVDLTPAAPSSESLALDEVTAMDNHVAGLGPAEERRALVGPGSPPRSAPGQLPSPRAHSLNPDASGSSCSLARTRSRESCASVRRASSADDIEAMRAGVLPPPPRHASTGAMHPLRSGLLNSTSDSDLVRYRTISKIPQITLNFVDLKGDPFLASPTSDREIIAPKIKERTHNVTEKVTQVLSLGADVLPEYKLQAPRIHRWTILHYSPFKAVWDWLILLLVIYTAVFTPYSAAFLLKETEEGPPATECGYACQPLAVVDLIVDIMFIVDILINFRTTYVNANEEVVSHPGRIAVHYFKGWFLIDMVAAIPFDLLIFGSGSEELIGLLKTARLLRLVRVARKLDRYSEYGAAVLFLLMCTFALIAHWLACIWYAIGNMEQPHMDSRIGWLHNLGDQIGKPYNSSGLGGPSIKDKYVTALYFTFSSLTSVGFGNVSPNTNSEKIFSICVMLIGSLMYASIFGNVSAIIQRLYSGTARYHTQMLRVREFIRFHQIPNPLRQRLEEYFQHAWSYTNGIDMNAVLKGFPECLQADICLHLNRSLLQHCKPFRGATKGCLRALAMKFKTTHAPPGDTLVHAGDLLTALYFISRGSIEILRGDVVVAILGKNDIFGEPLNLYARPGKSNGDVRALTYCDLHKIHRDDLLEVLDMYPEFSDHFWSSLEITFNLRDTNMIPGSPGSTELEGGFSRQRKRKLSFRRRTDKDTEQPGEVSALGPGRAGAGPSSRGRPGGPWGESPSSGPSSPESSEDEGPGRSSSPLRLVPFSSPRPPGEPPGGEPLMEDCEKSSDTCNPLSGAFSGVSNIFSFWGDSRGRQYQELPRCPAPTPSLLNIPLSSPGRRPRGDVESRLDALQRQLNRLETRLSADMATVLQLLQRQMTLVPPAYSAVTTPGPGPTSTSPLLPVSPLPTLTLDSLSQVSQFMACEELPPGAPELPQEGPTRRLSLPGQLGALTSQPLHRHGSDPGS

| SMILES | hERG current change (%, negative = inhibition) at 1uM [%] |
| --- | --- |
| O=C(CSc1cccc[n+]1[O-])CSc1cccc[n+]1[O-] | 12.5 |
| Cc1cccc2c3nc4ccccc4nc3n(C)c12 | 7.81 |
| CCOc1ccc(-c2nnc(NC(=O)C3CCCC3)o2)cc1 | 13.9 |
| COc1cc(NC(=O)Nc2cccc(C(C)=O)c2)cc(OC)c1OC | 5.91 |
| O=C(O)CSc1nnnn1-c1ccc2c(c1)OCCO2 | -2.99 |
| O=C(Cc1ccc(S(=O)(=O)N2CCOCC2)s1)NCCc1ccc(F)cc1 | 5.48 |
| C=C(C)Cn1c(C)cc(C)c(S(=O)(=O)c2cccc(C)c2)c1=O | -7.18 |
| O=C(COc1ccc(Cl)cc1)NC1=NN(c2ccccc2)C(=O)C1 | 9.82 |
| CC(C)C(=O)Nc1cccc(NC(=O)CCN2C(=O)c3ccccc3S2(=O)=O)c1 | 10.1 |
| CC(=O)c1ccc(S(=O)(=O)N(C)CC(=O)Nc2ccc(C)cc2)cc1 | 6.83 |
| O=C(NCc1ccco1)C(c1ccc(F)cc1)N(CC1CCCO1)C(=O)Cn1nnc2ccccc21 (centres unmarked) | 9.18 |
| N[C@@H](Cc1c[nH]c2ccc(O)cc12)C(=O)O | 15.6 |
| CC(C)N1C(=O)C(=O)N(CC(=O)N(C)c2ccccc2)C1=O | 10.8 |
| Cc1ccccc1C(=O)N1CCC(C(=O)Nc2nc3ccc(F)cc3s2)CC1 | 1.13 |
| Nc1cc(Cl)ccc1C(=O)OCC(=O)NC1CCCCC1 | -4.47 |
| CCOC(=O)c1[nH]c2ccccc2c1CCCN1C(=O)c2ccccc2C1=O | 10.2 |
| O=C(Cn1cnc([N+](=O)[O-])n1)N/N=C/c1cccc(Cl)c1 | 1.97 |
| CCOC(=O)c1c(C)n(C)c2ccc(OCC(O)CN3CCC(C)CC3)cc12.Cl (centres unmarked) | -1.19 |
| CC(C)C(=O)Nc1cccnc1 | 17.7 |
| Cc1c(C(=O)NN)sc(-c2ccccc2)c1C#N | 10.4 |
| Cc1nnc(NC(=O)CSc2nnc(Cc3cccn3C)n2C)s1 | 10.4 |
| O=C(Cc1c(C(=O)O)[nH]c2ccccc12)NCCN1CCN(c2cccc(Cl)c2)CC1 | 13.4 |
| O=C(c1ccncc1)N1CCN(c2cccc(C(F)(F)F)c2)CC1 | -7.14 |

| SMILES | hERG current change (%, negative = inhibition) at 1uM [%] |
| --- | --- |
| Cc1ccccc1C(=O)NC1CCN(Cc2nnnn2Cc2ccccc2)CC1 | -0.247 |
| Cc1ccc(Nc2nc(C)cc(C)c2C(N)=O)c(C)c1 | 13.8 |
| O=c1cc(CN2CC(O)Cc3ccc4ccccc4c32)nc2sccn12 (centres unmarked) | 0.461 |
| Cc1ccc(/C=N/N(C)C2=NS(=O)(=O)c3ccccc32)o1 | 16.5 |
| COc1ccccc1CNC(=O)C(C)NS(=O)(=O)c1ccc(C)cc1 (centres unmarked) | 9.28 |
| CCOC(=O)/C=C(\C)Sc1cc(=O)oc2ccccc12 | 10.2 |
| O=C(NCCN1CCOC1=O)C1CCC(=O)N(CCc2ccc(Cl)cc2)C1 (centres unmarked) | 0.606 |
| CCCNC(=O)c1ccc2c(c1)CCN2S(C)(=O)=O | 4.7 |
| COc1ccc(C2CC(=O)C=C(NCCC(C)C)C2)cc1 (centres unmarked) | -11.8 |
| CN(Cc1ccccc1)C1CCN(Cc2ccccc2[N+](=O)[O-])CC1.O=C(O)C(=O)O | -1.08 |
| Cc1c(C(=O)NC2CC2)oc2ccccc12 | 3.03 |
| CCOc1c(OC(C)=O)ccc(/C=C/c2ccc3cccc(OC)c3n2)c1[N+](=O)[O-] | 6.52 |
| COC(=O)C1C(=O)C2=C(CC1C)NC(=O)CC2c1ccc(O)c(OC)c1 (centres unmarked) | 12.3 |
| Cc1ccc(O)c(/C=N/NC(=O)Cc2ccc(Cl)cc2)c1 | 11.8 |
| CCc1cc2c(=O)[nH]c(-c3ccncc3)nc2s1 | 12.2 |
| COc1ccc2nc(Nc3nc(-c4cc5ccccc5oc4=O)cs3)sc2c1 | 8.08 |
| CN(C)c1ccc(-c2n[nH]c(=S)n2-c2ccccc2)cc1 | 14.8 |
| CC(C)(C)N(Cc1ccccc1)C(=O)CSc1nnc(CNc2ccc(F)cc2)o1 | 2.58 |
| O=C(CNC(=O)c1ccc(Br)o1)NC1CCCCCC1 | 2.06 |
| CCn1c(=O)n(CC(=O)N2CCN(c3ccccc3F)CC2)c(=O)c2ccccc21 | 1.36 |
| Cc1cc(O)c(/C=N/OCc2ccc(Cl)cc2Cl)c(=O)o1 | 14.7 |
| CCOC(=O)c1sc(C)c(C(=O)NC2CCCCC2)c1N | 10.7 |
| Brc1ccc(-c2csc(N3CCc4ccccc4C3)n2)cc1 | 12.7 |

| SMILES | hERG current change (%, negative = inhibition) at 1uM [%] |
| --- | --- |
| CSc1ccccc1-c1nnc(-c2ccccc2)o1 | 11.6 |
| COc1ccccc1CCNC(=O)Nc1cccc([N+](=O)[O-])c1 | 9.1 |
| CNc1cc(N2CCNCC2)ccc1[N+](=O)[O-] | 14.8 |
| CCOC(=O)N1CCN(S(=O)(=O)c2ccc(C)c(C)c2C)CC1 | 9.56 |
| COc1ccc(NC(=O)NC23CC4CC(CC(C4)C2)C3)cc1OC | 15.9 |
| CC(=O)Nc1ccccc1C(=O)N1CC2(C)CC1CC(C)(C)C2 (centres unmarked) | 10.7 |
| CN(CCO)c1ccc(C(C(=O)c2ccccc2)c2ccc(N(C)CCO)cc2)cc1 | 11.2 |
| CCCn1c(NC(=S)Nc2ccccc2)nc2ccccc21 | 10.4 |
| Cc1cccc(-c2nc(CC(=O)Nc3cccc(S(=O)(=O)NC4=NCCC4)c3)cs2)c1 | 8.17 |
| O=c1oc2ccccc2c(Nc2ccc(F)cc2)c1[N+](=O)[O-] | 6.77 |
| Cc1csc(Sc2nc3c(c(=O)[nH]c(=O)n3C)n2Cc2ccccc2Cl)n1 | 9.33 |
| O=C1c2nccnc2C(=O)N1c1ccc(C(F)(F)F)cc1 | 14 |
| CCOC(=O)CC1C(=O)NCCN1C(=O)COc1ccc(C(C)(C)C)cc1 (centres unmarked) | 13.9 |
| COc1ccc(/C=N/NC(=O)c2ccn[nH]2)cc1COc1ccc(Cl)cc1 | 13 |
| Cc1cc(=O)[nH]c2nnc(-c3ccc(Br)cc3)n12 | 9.25 |
| Cc1cc2c(=O)n(CC(=O)NCC(=O)Nc3ccc(C(C)C)cc3)cnc2s1 | 10.5 |
| CC(=O)Nc1cccc(N2C(=O)CC(N3CCC(C(=O)N4CCCCC4)CC3)C2=O)c1 (centres unmarked) | 17.6 |
| CC(=O)Nc1cccc(C(=O)OCC(=O)NNC(=O)c2ccc([N+](=O)[O-])cc2)c1 | 4.07 |
| CCCc1cc(=O)[nH]c(SCC(=O)c2cc(C)n(C)c2C)n1 | 2.29 |
| O=C(Nc1ccccc1Cl)NC1(C(=O)NCCCN2CCOCC2)CCCCC1 | 10.2 |
| O=C(CCN1CCCO1)NC1CCCc2c1cnn2-c1ccccc1F (centres unmarked) | 22.8 |
| CCOC(=O)c1ccc(NC(=S)NCCCN2CCOCC2)cc1 | 14.2 |
| OC1(c2ccc(F)cc2)CCN(Cc2nnnn2Cc2cccs2)CC1 | 4.25 |

| SMILES | hERG current change (%, negative = inhibition) at 1uM [%] |
| --- | --- |
| Cc1[nH]c2ccccc2c1C(=O)NS(=O)(=O)Nc1ccccc1 | 14.6 |
| Cc1ccc(CN(C(=O)c2sc3ccccc3c2Cl)C2CCS(=O)(=O)C2)cc1 (centres unmarked) | -1.23 |
| COC(=O)c1ccsc1NC(=O)CSc1nnnn1Cc1ccccc1 | 0.681 |
| COc1cccc(O[C@@H]2O[C@@H]3COC(C)(C)O[C@H]3[C@H](O)[C@H]2NC(C)=O)c1 | 3.2 |
| O=C(OCc1ccccc1Cl)c1ccccc1C(=O)c1ccccc1 | 7.03 |
| O=C(C1=NN[C@@H]2C(=O)N(c3cccc(F)c3)C(=O)[C@H]12)C(c1ccccc1)c1ccccc1 | -15.7 |
| CCOc1ccc(/C(O)=C2/C(=O)C(=O)N(CC3CCCO3)C2c2ccc(C)o2)cc1 (centres unmarked) | 13.2 |
| COCCNC(=O)c1onc(CCl)c1C(=O)OC | 4.13 |
| CCC(=O)NCCNc1ccc([N+](=O)[O-])cn1 | 1.37 |
| CCOc1ccc(-c2nc(-c3ccc(OC)cc3)no2)cc1OCC | 11.8 |
| COc1ccc(Cc2noc(CN3CCCN(C4Cc5ccccc5C4)CC3)n2)cc1OC | -44.4 |
| COc1cccc(/C=N/Nc2cc(-n3nc(C)cc3-c3ccccc3)ncn2)c1O | 15.2 |
| CCOC(=O)C1=C(C)N(CC(C)C)C(=O)/C1=C\c1cccs1 | 3.84 |
| COc1ccccc1NC(=O)c1cc(S(=O)(=O)N2CCCC2)cn1C | -2.89 |
| Cc1cccc(C(=O)Nc2nnc(SCC(=O)Nc3ccc4c(c3)oc3ccccc34)s2)c1 | 12.2 |
| Cc1cc(NC(=O)c2ccc(Cn3cc([N+](=O)[O-])cn3)o2)no1 | 11.2 |
| CC1(C)NC(=O)N(CC(=O)N2CCC(Cc3ccccc3)CC2)C1=O | -7.16 |
| COc1ccc(S(=O)(=O)Nc2ccc(Oc3ncccn3)c(Cl)c2)cc1 | 5.3 |
| Cc1ccc(-n2c(SCC(=O)N3c4ccccc4Sc4ccccc43)nnc2-c2ccncc2)cc1 | 3.46 |
| COc1ccc(C)cc1NC(=O)COC(=O)C1CCN(C(=O)c2ccc(Cl)cc2)CC1 | -57.7 |
